# Experimental data: the supplement of paper PMC11417369
# The other results are listed elsewhere or left out.
# Test system: PfHDP1 homeodomain (GST-tagged)
# Assay: gcPBM binding intensity (ln(normalized median fluorescence intensity)); higher = stronger DNA binding
# Method in brief: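 Probes on an Agilent 4 × 180k array were primer-extended, double-stranded and 36 bp long, taken from intergenic genomic regions, with negative controls added. GST-tagged P. falciparum DNA-binding domains from E. coli, about 25 μg on average, were applied to the array for 1 h in 1× PBS containing 1% milk, 0.2 mg/ml BSA, 0.5% salmon testes DNA and 0.03% Triton X-100. Binding intensity, obtained after Alexa488 anti-GST antibody detection and a 488 nm scan, is the highest Masliner-normalised natural-log median intensity across replicate spots of either probe orientation.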
row,Sequence,gcPBM binding intensity (ln)
1,GTTTTATTTTCAATGTGTACTTATTATTTGATATAC [XGTACX_site6402],6.82
2,GTACCTATTTCATACACACACACACCCAAACAAACA [CACACA_site976],7.5
3,GAAACAATTTGATATTGTACATAAATAAATAAAAAC [XGTACX_site8869],6.88
4,AACATTGATAAATATAAACACACGAAAACAGACATA [CACACA_site490],7.13
5,TAATTTTTTTTAATAACACACATATAAATATAAATA [CACACA_site6521],6.32
6,CATTTGCACCCGCACACACACATAAAAAGAAAAATA [CACACA_site4350],10.7
7,CTTGTACCTAGAAATACACACAATTCTATAACTTAT [CACACA_site7355],6.45
8,AATATAAATAAAAACACACACACACCGATATATATA [CACACA_site5283],7.05
9,AAGATTAGGTTAATTAGTACTTATTATATTGTAATG [XGTACX_site3653],6.06
10,GATCCATTATTGATCCGTACTTATTCATGTTATATA [XGTACX_site5946],6.67
11,TGTTATAAGATTTATGTACACACATATACACCCCTC [CACACA_site8141],7.22
12,TATATATATATATGTATGCACTTTAATTTTATAAGG,9.31
13,TATATATGTATATATACACACAACGGTTATAAATAT [CACACA_site1128],7
14,AGAGAATAAATATAAAGTACATATATAAATATATAT [XGTACX_site5055],6.31
15,GTATATAAAAATTCATGTACATATTATTATTTTTAA [XGTACX_site658],6.59
16,ATGTTATAAATCTTAATATATATATGCAAAAGAGAA [XGTACX_negctrl_site521],7.75
17,ACATATACAAAACACACACACAACGTTTTAATAAAT [CACACA_site1979],6.92
18,CATACATTTAAAAAGTGTACGTATATGAAAAAAGGA [XGTACX_site6512],6.82
19,ACCTTTGTAGTTGGTCCACACACATATATGGAAGAA [CACACA_site8351],6.82
20,ACATATATATAATATATATATCATCATATTTTCTTA [CACACA_negctrl_site853],6.33
21,ATATGTGTTATTTATACATGCAGAAGAATATCTATT [TGCATGCA_site828],6.64
22,TGTGTGTGTATATGTGTGCACATATAAAATAGAAGA [GTGCAC_site9714],10.5

row,Sequence,gcPBM binding intensity (ln)
1,CTCAATATTATTACTACACACAAATTAAAATTTTCC [CACACA_site4203],6.7
2,TCATTTTTTTGTTTGGTGCGACTTGAAAATTTGATT,6.95
3,TTATAACTTTTGAGCACACACAAGCATATAAATATA [CACACA_site6933],6.85
4,TTGTACATCTTTTGCACACGTAATGTTATTATAATA [CACACA_site1258],10.7
5,AAATACTGTAAAAAAGCATGCCACTAATAATAATTA [TGCATGCA_site759],6.33
6,GTATATGTACTATACGCACACACACCCACATATATA [CACACA_site9062],7.49
7,ATATATATTATATGCACACTAATAAGACTATTTAAA [CACACA_site3554],9.8
8,GTACCTATTTCATACACACACACACGCAAACAAACA [CACACA_site6590],7.81
9,ATATAGATTCGACACACACACAAAAAAAAAAAAAAA [CACACA_site7677],6.41
10,TGGTATATTATTTTTTGTACACATAAATGAAACATT [XGTACX_site5345],6.73
11,CGTATATCACCAACTAGTACATATAAATAAATAAAT [XGTACX_site8837],6.62
12,ATATATATAATAAACACACACATATACATAGATGTA [CACACA_site5841],6.89
13,ATATATATATATATATGTACATATTATTATTTTGAT [XGTACX_site4752],9.41
14,AATAATCATGATCAAAGTACGTATGATTAAAAAAAA [XGTACX_site4916],6.68
15,TATGACCTTAGTAATTGTACACAAACATATTAATAT [XGTACX_site3340],6.48
16,GAGTATATGATATATATATATATATAAAAAAAAAAA [GTGCAC_negctrl_site99],6.78
17,TATATGTAAATGGACACACACATATATATATATATA [CACACA_site3659],9.29
18,TTATAATATTCATAAGGTACAGTTTATATATGTTAT [XGTACX_site8442],6.11
19,TTGAGTTGTATAAAAAGTACAAGGTTTTAACTAAAT [XGTACX_site1447],6.43
20,TCAACTATCAATATAGTGCATTTTTTTTGGAAAACC [GTGCAC_site9927],8.2
21,TATCAAAATTAGTATACACACAAAATTAATCAAATA [CACACA_site7117],6.25
22,CCTATATAATATATTTGTACTTAATAATTAAAGTGT [XGTACX_site5151],6.93
